The BET-seq Pho4 binding data (Le et al. 2018)
The other results are listed elsewhere or left out. Values were computed here from the reads of four pooled replicates and scatter widely.

target: T1, Pho4 (S. cerevisiae) (UniProt P07270); assay: relative binding free energy (BET-seq); higher = weaker binding; conditions: reference: library average
T1 sequence: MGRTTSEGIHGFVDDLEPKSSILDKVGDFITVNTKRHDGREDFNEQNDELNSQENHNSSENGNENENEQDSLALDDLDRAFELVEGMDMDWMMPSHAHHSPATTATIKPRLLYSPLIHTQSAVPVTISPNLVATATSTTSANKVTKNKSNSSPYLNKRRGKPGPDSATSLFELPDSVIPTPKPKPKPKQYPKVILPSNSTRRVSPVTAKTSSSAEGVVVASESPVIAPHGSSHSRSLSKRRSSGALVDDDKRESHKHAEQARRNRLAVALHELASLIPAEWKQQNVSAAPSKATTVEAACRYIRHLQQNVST

| Sequence | relative binding free energy |
| --- | --- |
| GGGTACACGTGGGAGT | 0.07 kcal/mol |
| TAGGCCACGTGATCGG | 0.07 kcal/mol |
| GCGGTCACGTGTCGGA | 0.22 kcal/mol |
| TAGTTCACGTGGTCCT | 0.25 kcal/mol |
| TTGAACACGTGGGTGT | -0.14 kcal/mol |
| TAGTACACGTGAGGAA | 0.36 kcal/mol |
| AAGTTCACGTGTGCGG | 0.2 kcal/mol |
| AATTGCACGTGTGGTC | 0.06 kcal/mol |
| TAGTTCACGTGTGTGT | 0.38 kcal/mol |
| ATAAGCACGTGAAGGT | 0.03 kcal/mol |
| ATGTACACGTGTCATG | -0.07 kcal/mol |
| CAATTCACGTGTTTAT | 0.19 kcal/mol |
| GTTGTCACGTGTCGTT | 0.19 kcal/mol |
| ACTATCACGTGGGTTG | -0.09 kcal/mol |
| GTGGGCACGTGTCGGC | 0.11 kcal/mol |
| TACGTCACGTGGGTTG | -0.23 kcal/mol |
| GGAGGCACGTGATATG | -0.01 kcal/mol |
| TATCTCACGTGGGTAT | 0.11 kcal/mol |
| GCGGGCACGTGGTGCT | -0.08 kcal/mol |
| TGATTCACGTGCTAGT | 0.11 kcal/mol |
| AAAAACACGTGGTGGG | 0.03 kcal/mol |
| TTGGGCACGTGATTGT | 0.03 kcal/mol |
| CTATTCACGTGTTTAT | 0.28 kcal/mol |
| TGTTTCACGTGAATTT | 0.31 kcal/mol |
| GCTGTCACGTGGTGTG | 0.09 kcal/mol |

| Sequence | relative binding free energy |
| --- | --- |
| TGTCACACGTGTTGAA | 0.09 kcal/mol |
| AAAGGCACGTGAGGGA | 0.16 kcal/mol |
| GGTGTCACGTGGTTTA | 0.16 kcal/mol |
| TTTGGCACGTGAGACA | 0.15 kcal/mol |
| AGTTCCACGTGTGTGG | -0.01 kcal/mol |
| TTTAGCACGTGTTGGG | 0.13 kcal/mol |
| TGCTCCACGTGGGAGT | -0.01 kcal/mol |
| TAAGACACGTGCAGGG | 0.03 kcal/mol |
| TTGTGCACGTGGTTGG | -0.05 kcal/mol |
| TTAGGCACGTGAGTCT | -0.11 kcal/mol |
| TGGCTCACGTGGCGTG | 0.08 kcal/mol |
| CTTGTCACGTGTTGGC | 0.09 kcal/mol |
| GGAGTCACGTGTGTAG | 0.14 kcal/mol |
| TATTGCACGTGGATTA | 0.01 kcal/mol |
| TTTGGCACGTGTAAGA | 0.13 kcal/mol |
| GTTATCACGTGAGGTT | 0.46 kcal/mol |
| GTAGTCACGTGGAAGT | 0.05 kcal/mol |
| AGGGGCACGTGTAAAG | 0.04 kcal/mol |
| AGACGCACGTGAAGGG | 0.03 kcal/mol |
| TTTTTCACGTGCCGAG | 0.4 kcal/mol |
| GCGGGCACGTGTCGGA | -0.02 kcal/mol |
| AGGTACACGTGATGGA | 0.02 kcal/mol |
| ATTCTCACGTGATGTA | 0.37 kcal/mol |
| GGTCACACGTGTTAGA | 0.21 kcal/mol |
| CGTGGCACGTGCGGAT | -0.21 kcal/mol |

| Sequence | relative binding free energy |
| --- | --- |
| AGTAGCACGTGCATGT | -0.02 kcal/mol |
| TCTTGCACGTGTGATT | 0.2 kcal/mol |
| ACGTGCACGTGTTGTG | -0.06 kcal/mol |
| AATAGCACGTGGGATT | -0.18 kcal/mol |
| ACTTTCACGTGAATGT | 0.26 kcal/mol |
| AAAGACACGTGTGCGG | 0.1 kcal/mol |
| TGAGACACGTGGGTAG | -0.14 kcal/mol |
| TGGTGCACGTGGGACC | -0.09 kcal/mol |
| ATGGTCACGTGATTAT | 0.19 kcal/mol |
| TATGGCACGTGTTAGG | 0.01 kcal/mol |
| CCTGGCACGTGTGGTG | -0.03 kcal/mol |
| TGTCTCACGTGAGCGG | 0.25 kcal/mol |
| TTTATCACGTGAGTCT | 0.28 kcal/mol |
| GCCAGCACGTGTAGGG | 0 kcal/mol |
| CGTAGCACGTGGAAGT | -0.07 kcal/mol |
| TTGTGCACGTGAGGGA | 0.19 kcal/mol |
| GGGGTCACGTGAGTCT | 0.2 kcal/mol |
| GGAGGCACGTGATCGG | -0.07 kcal/mol |
| GCCTTCACGTGTGGTG | 0.26 kcal/mol |
| TGCGGCACGTGAGTTA | 0.02 kcal/mol |
| TAATGCACGTGGGTGG | -0.17 kcal/mol |
| ATGAGCACGTGTCAGG | -0.09 kcal/mol |
| GGATTCACGTGTTTTC | 0.3 kcal/mol |
